The RNAGym collection of RNA variant scans (doi:10.1073/pnas.2313332121)
Variants at the background level are over-represented here.

B1: TPR 5TU (parent)
chain: GGAUCUUCUCGAUCUAACAAAAAAGACAAAUCUGCCACAAAGCUUGAGAGCAUCUUCGGAUGCAGAGGCGGCAGCCUUCGGUGGCGCGAUAGCGCCAACGUUCUCAACUAUGACACGCAAAACGCGUGCUCCGUUGAAUGGAGUUUAUCAUG

Variants of: B1
Experiment: polymerase ribozyme fitness, log enrichment relative to wild type (log ratio); higher = more active; in vitro selection for triplet polymerase activity
Method in brief: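 A heterodimeric triplet polymerase ribozyme had each of its subunits mutagenized by PCR into a library, which was transcribed. One round of in vitro selection, done in triplicate, annealed each library with a biotinylated primer, its partner subunit and triplets, then incubated it frozen at −7 °C before gel excision of extended constructs, streptavidin-bead capture and RT-PCR. Fitness is the logarithm of genotype enrichment relative to wild-type enrichment, based on Illumina sequencing of inputs and outputs and inverse-variance-weighted replicate averages. A base-2 logarithm is used, and genotypes were kept only with ≥10 input reads and ≥1 read per output.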

Variant | polymerase ribozyme fitness (log ratio)
GGAUCUUCUCGAUCUUACAAAAAAGACAAAUCUGCCACAAAGCUUGAGAGCAUCUUCGGAUGCAGAGGCGGCAGCCUUCGGUAGCGCGAUAGCGCCAACGUUCUCAACUGUCACACGCAAAACGCGUGCUCCGUUGAAUGUAGUUUAUCAUG | ≤ -4.2
GGAUCUUCUCGAUCUUACAAAAAAGACAAAUCUGCCACAAAGCGUGAGAGCGUCUUCUGAUGCAGAGGCGGCAGCCUUCGGUGGCGCGAUAGCGCCAACGUUCUCAACUAUGACACGCAAAACGCGUGCUCCGUUGGAUGGAGUUUAUCAUG | ≤ -4.2
GGAUCUUCUCGAUCUUACAAAAAAGACAAAUCUGCCAUAAAGCUUGAGAGCAUCUUCCGAUGCAGAGGCGGCAGCCUUCGGUGGGGCGAUAGCGCCAACGUUCUCAACUAUGACACGCAAAACGCGUGCUCCGUUGAAUGGAGUUUAUCAUG | ≤ -4.2
GGAUCUUCUCGAUCUUACAAAAAAGACAAAUCUGCCACAAAGCUUGAGAGCACCUUCGGAUGCAGAGGCGGCAGCCUUCGGUGGCGCGCUAGGGCCAACGUUCUCAACUAUGACACGCAAAACGCGUGCUCCGUUGAAUGGAGUUUCUCAUG | ≤ -4.2
GGAUCUUCUCGAUCUUACAAAAAAGAUAAUUCUGCCACAAAGCUUGAGAGCAUCUUCGGAUGCAGAGGCGGCAGCCUUCGGUGGCGCUAUAGCGCCAACGUUCUCGACUAUGACACGCAAAACGCGUGGUCCGUUGAAUGGAGUUUAGCAUG | ≤ -4.2
GGAUCUUCUCGAUCUUACAAAAAAGACAAAUUUGCCACACAGCUUGAGAGCAUCUUCGGAUGCAGAGGCGGCAGCCUUCGGUGGCGCGAUAGCGGCAAUGUUCUCAACUAUGACACGCAAAACGCGUGCUCCGUUGAAUAGGGUUUAUCAUG | ≤ -4.2
GGAUCUUCUCGAUCUUACAAAAAAGACAAAUCUGCCACAAAGCUUGAGAGCAUCUUCGGAUGCAGAGGCGGCAGCCUUCGGUGGCGCGAUAGCGCCAACGUUGUCAACUAUGACACGCAAAACGCGUGCUCCGUUGAAUGGAGUUUAUCAUG | -3.31
GGAUCUUCUCGAUCUUACAAAAAAGACAAAUCUGCCACAAAGCUUGAGAGCAUCUUCGGAUGCAGAGGCGGCAGCCUUGGGUGGCGCGAUAGCGCCAACGUUCUCAACUAUGACACGCAAAACGCGUGCUCCGUUGAAUGGAGUUUAUCAUG | ≤ -4.2
GGAUCUUCUCGAUCUUACAAAAAAUACAAAUCUGCCACAAAGCUUGAGGGCAUCUUCGGAUGCAGAGGCGGCAGCCCUCGGUGGCGCGAUAGCGCCAACGUUCUCCACUAUGACACGCAAAACGCGUGCUCCGUUGAAUGGAGUUUAUCAUG | ≤ -4.2
GGAUCUUCUCGAUCUUAGAAAAAAGACAAAUCUGCCACAAAGCUUGAGAGCGUCUUCGGAUGCAGAGGCGGCAGCCUUCGGUGAGGCGAUACCGCCAACGUUCUCAACUAUGACACGCAAAACGCGUGCUCCGUUGAAUGGAAUUUAUCAUG | ≤ -4.2
GGAUCUUCUCGAUCUUACAAAAAAGACAAAUCUGCCACAAAGCUUGAGAGCAUCUAUGGAUGCAGAGACGGCAGCCUUCGGUGGCGAGAUAGCGCCAACGUUCUCAACUAUGACACGCAAAACGCGUGCUCCGUUGAAUGGAGUUUAUCAUG | ≤ -4.2
GGAUCUUCUCGAUCUUACAAAAAAUACAAAUCUGCCACAAAUCUUGAGAGCAUCAUCGGAUGCAGAGGCGGCAGCCUUCGGUGGCGCGAUAGCGCGAAUGUUCUCAACUAUGACACGCAAAACGCGUGCUCCGUUGAAUGGAGUUUAACAUG | ≤ -4.2
GGAUCUUCUCGAUCUUACAAAAAAGACAAAUCCGCCAUAAAGCUUGAGAGCAUCUUCGGAUGCAGAGGCGGCAGCCUUCGGUGGCGCGAUAGCGCCAACGUUCUCAACUAUGACACGCAAAACGCGUGCUCCGUUGAAUUGAGUUUAUCAUG | ≤ -4.2
GGAUCUUCUCGAUCUUACAAAAAAGACAAAUCUGACACAAAGCUUGAGAGCAUCUUCGGAUGCAGAGGCAGCAGCCUUCGGUGGCGCGAUAGCGCCAACGUUCUCAACUAUGACACGCAAAACGCGUGCUCCGUUGAAUGGAGUUUAUCAUG | ≤ -4.2
GGAUCUUCUCGAUCUUAUAAAAAAGACAAAUCUGCCACAAAGCUUGAGAGAAUCUUCGGAUGCAGAGGCGGCAGCCUUCGGUGGCGCGAUAGUGCCAACGUUCUCCACUAUGACAGGCAAAACGCGUGCUCCGUUGAAUGGAGUUUAUCAUG | ≤ -4.2
GGAUCUUCUCGAUCUUACAAAAAAGACAAAUCUGUCACAAAGCUUGAGUGCAUCUUCGAAUGCAGAGGCGGCAGUCUUCGGUGGCGCGAUGGCGCCAACGUUCUCAACUAUGACACGCAAAACGCGUGCUCCGUCGAAUGGAGUAUAUCAUG | ≤ -4.2
GGAUCUUCUCGAUCUUAGAAGUAAGACAAAUCUGCCACAAAGCUUGAGAGUAGCUUCGGAUGCAGAGACGGCAGCCUUCGCUGGCGCGAUAGCGCCAACGUUCUCAACUAUGACACGCAAAACGCGUGCUCCGUUGAAUGGAGUUUAUCAUG | ≤ -4.2
GGAUCUUCUCGAUCUUACAAAAAAGACAAAUCUGCCACAAAGCUUGAGAGCAUCUUCGGAUGCAGAGGCGGCAGCCUUCGGUGGGGCGAUAGCGCCAACGUUCUCAACUAUGACACGCAAAACGCGUGCUCCGUUGAAUGGAGUUUAUCAUG | -3.36
GGAUCUUCUCGAUCUUACAAAAAAGACAAAUCUGCCACAAAGCUUGAGAGCAUCUUCGGAUGCAGAGGCGGCAGCCUUCGGUGGAGCGAUAGCGCCAACGUUCUCAACUAUGACACGCAAAACGCGUGCUCCGUUGAAUGGAGUUUAUCAUG | -2.74
